Experimental data: paper PMC8854406
Results are given in words; binding and its absence hold for the method and conditions named. Binding seen in cells or lysates may run through a third protein. Some entries that bind do so weakly or less than the wild type. Sequences can lack the tags named with a protein.

The chains behind the UniProt entries cited, without tags or fusion partners.
UniProt P35240: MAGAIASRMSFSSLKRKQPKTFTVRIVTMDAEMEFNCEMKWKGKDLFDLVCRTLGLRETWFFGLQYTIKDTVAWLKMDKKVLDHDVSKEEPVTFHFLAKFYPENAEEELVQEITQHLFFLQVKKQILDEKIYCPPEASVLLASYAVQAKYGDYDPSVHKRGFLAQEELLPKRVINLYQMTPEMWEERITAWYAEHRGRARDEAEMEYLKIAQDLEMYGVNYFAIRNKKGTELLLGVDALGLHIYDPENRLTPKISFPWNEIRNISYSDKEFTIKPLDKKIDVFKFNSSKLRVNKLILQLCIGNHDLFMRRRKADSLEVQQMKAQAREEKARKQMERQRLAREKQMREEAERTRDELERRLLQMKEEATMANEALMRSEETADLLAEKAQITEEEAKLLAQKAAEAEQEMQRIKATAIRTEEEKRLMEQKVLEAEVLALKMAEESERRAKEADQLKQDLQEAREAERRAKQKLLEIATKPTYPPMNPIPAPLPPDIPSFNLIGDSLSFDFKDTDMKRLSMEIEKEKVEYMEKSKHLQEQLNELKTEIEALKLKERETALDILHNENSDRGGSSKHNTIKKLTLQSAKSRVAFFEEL

Molecular target: T1, Myc-KIRREL1-HA (full-length KIRREL1) (UniProt Q96J84)
T1 sequence: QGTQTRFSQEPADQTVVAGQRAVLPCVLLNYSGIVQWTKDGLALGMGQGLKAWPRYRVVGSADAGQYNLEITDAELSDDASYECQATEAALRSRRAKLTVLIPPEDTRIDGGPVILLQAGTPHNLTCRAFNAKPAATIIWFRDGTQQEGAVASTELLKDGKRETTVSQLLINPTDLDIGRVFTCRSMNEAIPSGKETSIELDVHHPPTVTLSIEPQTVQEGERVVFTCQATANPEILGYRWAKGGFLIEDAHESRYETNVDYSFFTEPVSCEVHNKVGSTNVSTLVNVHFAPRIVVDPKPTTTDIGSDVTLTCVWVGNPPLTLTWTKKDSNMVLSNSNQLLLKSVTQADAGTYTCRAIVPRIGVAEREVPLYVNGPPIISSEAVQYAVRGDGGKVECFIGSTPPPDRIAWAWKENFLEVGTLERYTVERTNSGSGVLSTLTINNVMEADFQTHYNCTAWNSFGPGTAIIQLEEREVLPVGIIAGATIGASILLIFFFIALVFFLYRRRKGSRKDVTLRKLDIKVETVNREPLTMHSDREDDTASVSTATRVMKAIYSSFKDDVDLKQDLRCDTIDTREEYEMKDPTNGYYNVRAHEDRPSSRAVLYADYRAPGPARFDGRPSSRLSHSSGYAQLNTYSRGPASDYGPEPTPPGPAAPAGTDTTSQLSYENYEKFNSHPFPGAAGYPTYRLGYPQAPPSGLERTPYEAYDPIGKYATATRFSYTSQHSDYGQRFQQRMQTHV
Assay: co-IP; HEK293T cells co-transfected; NP40 lysis buffer; cleared lysates incubated with anti-Flag tag or anti-Myc tag magnetic beads overnight at 4 °C; beads washed four times; immunoblot

binding: binds weakly
Substance: Flag-tagged NF2 (from UniProt P35240 1-595)
